Measured values published in PubChem BioAssay AID1346428 (National Center for Advancing Translational Sciences (NCATS), 2018).
Values joined by “and” are separate entries in the source; they are usually repeats but may differ in a detail not shown here. Identical values can stand only once. About 1,200 (2.5%) of roughly 48,000 compounds were called active. About 2% were inconclusive and are not listed.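 The calls were made as follows: active = activation of at least 60% and not above a set upper limit (about 1 call in 100 departs from these limits); inconclusive = activation of 40% to 60%, or above that upper limit; inactive = activation under 40%.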 Some of the results follow.

Target: Probable G-protein coupled receptor 32 (Homo sapiens) (UniProt O75388)
UniProt O75388, sequence (O75388 whole entry, looked up): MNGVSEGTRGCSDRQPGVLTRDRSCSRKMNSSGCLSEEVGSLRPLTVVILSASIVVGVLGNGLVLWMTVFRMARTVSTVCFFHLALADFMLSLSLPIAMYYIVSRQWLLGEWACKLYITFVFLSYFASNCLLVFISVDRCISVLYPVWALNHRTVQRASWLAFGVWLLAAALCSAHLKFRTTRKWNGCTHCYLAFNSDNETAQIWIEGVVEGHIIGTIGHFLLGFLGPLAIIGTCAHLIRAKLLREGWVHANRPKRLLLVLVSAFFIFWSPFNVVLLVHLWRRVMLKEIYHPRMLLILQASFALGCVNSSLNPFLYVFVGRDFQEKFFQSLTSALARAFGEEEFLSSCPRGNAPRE
Assay: qHTS for Agonists of Human Resolvin D1 Receptor DRV1; also: 0% is about no effect
Settings: CHO-K1 GPR32 beta-arrestin PathHunter luminescence, 90 min; at 76.9 µM; hits give high values; zero percent set by DMSO-only wells
Summary of the method: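 Engineered CHO-K1 line co-expressing GPR32-ProLink and EA-beta-arrestin. Compound treatment lasted 90 min at 37 °C. Luminescence was recorded after 1 h with substrate at ambient temperature, relative to DMSO basal wells.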

activation, active:
O=C(NCCc1csc(-c2cccc(F)c2)n1)c1ccc(Br)o1 93.8%
COc1ccccc1N1CCN(c2ncnc3c2nc2n3CCCC2)CC1 63.5%
Cc1ccc(OCC(=O)Nc2ccc(Cl)c(-c3nc4ccccc4[nH]3)c2)cc1C 70.6%
O=C(NC1CCCCC1)c1c[nH]c2ccc(S(=O)(=O)Nc3ccccc3F)cc2c1=O 101%
Cc1ccc(CN(C(=O)COc2ccc(C(C)C)cc2)C2CCS(=O)(=O)C2)o1 (stereo not drawn) 61.2%

activation, inactive:
COC(=O)c1c(NC(=O)COc2cc(C)c(Cl)c(C)c2)sc2c1CCCC2 14.4%
CC(Oc1ccc(F)cc1)C(=O)Nc1cc(-c2ccc(F)c(F)c2)no1 (stereo not drawn) 9.59%
Cc1ccc(S(=O)(=O)NCC2CCC(C(=O)N(C)Cc3ccccc3)CC2)cc1 (stereo not drawn) -9.89%
Cc1ccc(OCC(=O)N(Cc2ccco2)C2CCS(=O)(=O)C2)cc1 (stereo not drawn) -5.03%
CCN(CC)C(=O)Cn1c(SCCOc2ccc(Cl)cc2)nc2ccccc21 3.46%
CCCc1nn2c(=O)cc(COc3ccc(/C=C(\C#N)C(=O)Nc4ccc(F)cc4)cc3)nc2s1 -2.23%
COc1ccc(NC(=O)CSc2nc(-c3ccco3)cc(C(F)(F)F)n2)c(OC)c1 -8.49%
CCCCN(C)C(=O)C1CCC(CNS(=O)(=O)c2ccc3c(c2)CC(C)N3C(C)=O)CC1 (stereo not drawn) -14.6%
O=C(CCS(=O)(=O)c1cc2c(cc1Cl)NC(=O)CO2)NCCc1ccc(Cl)cc1 -2.34%
CC(=O)N1c2ccccc2C(=O)C1N1CCN(c2ccc(F)cc2)CC1 (stereo not drawn) -41.6%
COc1ccc(NC(=O)c2ccc(CNS(=O)(=O)c3ccc4c(c3)C(C)(C)C(=O)N4C)cc2)cc1 2.35%
COc1cccc(CNC(=O)C2CCCN(c3ncnc4onc(-c5ccc(F)cc5)c34)C2)c1 (stereo not drawn) -6.3%
CC(C)OCCCNC(=O)CN1C(=O)CSc2ccc(S(=O)(=O)N3CCCCC3)cc21 0.731%
Cc1c(C)n(Cc2ccccc2)c2ccc(C(=O)NCCc3ccccc3Cl)cc12 -21.2%
COc1cccc(-n2c(=O)c3c(C)c(C(=O)N(C)C)sc3n(CC(=O)Nc3ccc(C)cc3Cl)c2=O)c1 -8.46%
O=C(Nc1ccc2c(c1)N(C1CCCC1)C(=O)c1ccccc1S2)c1cccc(F)c1 14.1%
CC(C)Oc1ccc(CNC(=O)CCn2c(=O)c3cccn3c3ccc(F)cc32)cc1 -26.2%
O=C1CC(c2nc(-c3cccc(Cl)c3)no2)CN1c1ccc2c(c1)OCCO2 (stereo not drawn) -12.6%
Cc1ccc(Cl)cc1NCc1nnc2n1CCCCC2 11.3%
Cc1ccc(-n2nnnc2C2CCN(S(=O)(=O)c3ccc(OC(F)(F)F)cc3)CC2)cc1 -2.98%
CCN(C(=O)Cn1c(=O)oc2cc(S(=O)(=O)N3CCCC3)ccc21)c1cccc(C)c1 -2.99%
CCOc1ccccc1CNC(=O)CCc1cn(Cc2ccc(Cl)cc2)c2ccccc12 -15.6%
COc1cccc(C(=O)Nc2cc3cc(OC)ccc3oc2=O)c1 -9.4%
Cc1cc(C)c2c(n1)SCCN2C(=O)Nc1ccc(C(=O)Nc2cc(Cl)ccc2C)cc1 -18.1%
Cc1cc(C(=O)NCCc2ccc(Cl)cc2)c2c(C)nn(-c3cccc(F)c3)c2n1 -15.5%
COc1ccc(N(CC(=O)NCCc2cccc(C)c2)S(=O)(=O)c2c(C)noc2C)cc1 -6.84%
COC(=O)c1cc2sc(Cl)cc2n1Cc1nc(-c2ccc(OC)cc2)oc1C -10.2%
Cc1ccc(Cl)cc1NC(=O)COCc1cc(-c2ccco2)on1 -23.3%
CCCCSCCCNC(=O)CN1C(=O)COc2ccc(S(=O)(=O)N3CCC(C)CC3)cc21 -0.192%
O=C(Nc1nnc(S(=O)(=O)N2CCN(c3ccc(F)cc3)CC2)s1)c1ccc(Cl)cc1 -0.647%
COc1ccc(C)cc1NC(=O)C(=O)NCC1(c2ccccc2)CCCC1 -16.5%
CC(C)(C)c1ccc(C2NC(=O)c3n[nH]c(-c4cccs4)c32)cc1 (stereo not drawn) -11.3%
Cc1ccc(C(=O)Nc2ccc(C(=O)OCc3cc(=O)n4ccsc4n3)cc2)cc1 -9.87%
CCN(CC)S(=O)(=O)c1ccc2c(c1)N(CC(=O)N(C)Cc1ccccc1)C(=O)CO2 -14.4%
Cc1ccc(Cn2cc(CCC(=O)NCc3ccccc3F)c3ccccc32)cc1 -13.2%
COC(=O)c1ccc(NC(=O)Cn2nc(C(=O)Nc3ccc(C)cc3)ccc2=O)cc1 -8.64%
Cc1ccc(NC(=O)Cn2c(CCC(=O)O)ccc2-c2ccc(Cl)cc2)cc1 -28.1%
COc1ccc(-c2[nH]c3c(c2-c2c(-n4cccc4)n(C)c(=O)n(C)c2=O)c(=O)n(C)c(=O)n3C)cc1 3.98%
O=C(CNC(=O)c1ccc(Cl)cc1)OCc1cc(=O)n2ccsc2n1 0.499%
CCC1CN(C(=O)N2CCC(C(=O)NCCC3=CCCCC3)CC2)c2cc(C)ccc2O1 (stereo not drawn) -21.7%
Cc1cccc(OCC(=O)Nc2ccc(-c3nc4cc(C)ccc4o3)c(O)c2)c1 -5.87%
COc1ccc(S(=O)(=O)N(CC(=O)N(C)Cc2ccccc2)c2ccc(Cl)cc2)cc1 -11.3%
CCn1cc2nc(SCc3ccc(C)cc3)n(CCc3ccccc3)c(=O)c2n1 -5.97%
COc1ccc(NC(=O)CSc2nnc(NC(=O)Nc3ccccc3)s2)c(OC)c1 -6%
COc1cc(Cc2cnc(N)nc2N)cc(OC)c1OC -3.5% and -3.9%
NC(=O)C(=O)O -6.62%
CCc1ccc(NC(=O)CSc2nc3ccccc3nc2Cc2ccccc2OC)cc1 -21.6%
CCOC(=O)c1ccc(NC(=O)c2c(NCc3sccc3C)sc3c2CCCCC3)cc1 -16.5%
CC(C)(C)c1ccc(C(=O)NC(Cc2c[nH]c3ccccc23)C(=O)OCC(=O)c2ccccc2)cc1 (stereo not drawn) -14%
Cc1cc(C)cc(NC(=O)N2CCN3CCCCC3C2)c1 (stereo not drawn) -3.89%
CC1CCCN(c2cc3c(cc2F)c(=O)c(S(=O)(=O)c2cccc(Cl)c2)cn3C)C1 (stereo not drawn) -12.1%
COc1ccc(Cn2c(=O)[nH]c3cc(C(=O)N4CCN(c5cccc(OC)c5)CC4)ccc3c2=O)cc1 -1.16%
Cn1cc(C(=O)NCc2ccc(Cl)cc2)c(=O)c2cc(S(=O)(=O)N3CCCCCC3)ccc21 24.4%
COc1ccc(CC(=O)Nc2c(C(=O)Nc3ccc(F)cc3)oc3ccccc23)cc1OC 0.375%
COc1ccc(OC)c(CCNC(=O)CN2C(=O)COc3ccc(S(=O)(=O)N4CCC(C)CC4)cc32)c1 -2.3%
CCCCNc1nc(Oc2ccc(OCCC)nn2)nc(N(C)C)n1 5.9%
COc1ccc(-c2nc3ccccc3o2)cc1NC(=O)CSc1ccc(Cl)cc1 -6.92%
O=C(CCSCc1ccccc1F)N1CCN(c2ccc(Cl)cc2)CC1 -24.6%
Cc1nn(-c2ccc(N3CCCC3)nn2)c(C)c1CCC(=O)NCc1ccccc1F -8.34%
CCC1CCCCN1CCCNC(=O)c1c(O)nc2c(C)cccn2c1=O (stereo not drawn) -3.04%
CCOc1ccccc1NC(=O)c1sc2nc(-c3ccc(OC)cc3)ccc2c1N 1.75%
CCCN1CCN(CCNC(=O)Nc2cc(C)ccc2OC)CC1 -2.49%
CCOC(=O)c1ccc(NC2=CC(c3ccc(O)c(OCC)c3)N(c3ccc(C(=O)OCC)cc3)C2=O)cc1 (stereo not drawn) 5.34%
COc1cc2c(C(=O)Nc3ccc(C)cc3Br)cn(C)c(=O)c2cc1OC 5.49%
COc1ccc(-n2c(/C=C/c3cccc4ccccc34)nc3ccccc3c2=O)cc1Cl 0.242%
O=C(Cc1ccc(F)cc1)N1CCC(c2nc3c(nnn3Cc3ccc(F)cc3)c(=O)[nH]2)CC1 -11.7%
Cc1ccccc1C(=O)Nc1nnc(S(=O)(=O)N(C)Cc2ccc(Cl)cc2)s1 10.9%
Cc1ccc(CNC(=O)c2nc(-c3ccc(Cl)cc3)n3c2CCCCC3)cc1 -38.5%
N#Cc1ccccc1Cn1c(=O)n(CCCCC(=O)NCc2ccc3c(c2)OCO3)c(=O)c2ccccc21 -6.01%
O=C(NCCSCc1ccccc1Cl)C1CCN(S(=O)(=O)Cc2ccccc2)CC1 41.4%
COc1ccc(OCC(=O)Nc2ccc(O)c(-c3nc4ccccc4s3)c2)cc1 2.8%
COc1ccc(CC(=O)N2CC(=O)Nc3ccc(Br)cc3C2c2ccc(F)cc2)cc1 (stereo not drawn) -21.1%
CCCn1c(=O)c2sccc2n2c(CCCC(=O)Nc3ccccc3OCC)nnc12 14%
COc1ccc(O)c(C2Nc3ccccc3-n3c(-c4ccccc4)c4c(=O)n(C)c(=O)n(C)c4c32)c1 (stereo not drawn) -2.65%
COc1cccc(CNC(=O)C(NS(=O)(=O)c2ccc3c(c2)oc(=O)n3C)C(C)C)c1 (stereo not drawn) 21.3%
Cc1cccc(NC(=O)CSc2nc(C3CCCC3)nc3c2c(=O)n(C)c(=O)n3C)c1C 1.22%
Cc1nnsc1C(=O)Oc1ccc(C(C)C)cc1 6.15%
Cc1c(C(=O)OCC2CCCCC2)[nH]c2c1C(=O)CC(c1ccc(Cl)cc1)C2 (stereo not drawn) 0.958%
